Measurements from PMC7005904.
Results are given in words; binding and its absence hold for the method and conditions named. For some assays here: Binding seen in cells or lysates may run through a third protein. Some entries that bind do so weakly or less than the wild type. For some assays here: Tags and fused reporters may be left off the sequences shown. Each block holds one molecule with its values, some of them ahead of it.

Sequences of proteins named here, by UniProt entry; tags and fusion partners are left off.
UniProt Q96EB6: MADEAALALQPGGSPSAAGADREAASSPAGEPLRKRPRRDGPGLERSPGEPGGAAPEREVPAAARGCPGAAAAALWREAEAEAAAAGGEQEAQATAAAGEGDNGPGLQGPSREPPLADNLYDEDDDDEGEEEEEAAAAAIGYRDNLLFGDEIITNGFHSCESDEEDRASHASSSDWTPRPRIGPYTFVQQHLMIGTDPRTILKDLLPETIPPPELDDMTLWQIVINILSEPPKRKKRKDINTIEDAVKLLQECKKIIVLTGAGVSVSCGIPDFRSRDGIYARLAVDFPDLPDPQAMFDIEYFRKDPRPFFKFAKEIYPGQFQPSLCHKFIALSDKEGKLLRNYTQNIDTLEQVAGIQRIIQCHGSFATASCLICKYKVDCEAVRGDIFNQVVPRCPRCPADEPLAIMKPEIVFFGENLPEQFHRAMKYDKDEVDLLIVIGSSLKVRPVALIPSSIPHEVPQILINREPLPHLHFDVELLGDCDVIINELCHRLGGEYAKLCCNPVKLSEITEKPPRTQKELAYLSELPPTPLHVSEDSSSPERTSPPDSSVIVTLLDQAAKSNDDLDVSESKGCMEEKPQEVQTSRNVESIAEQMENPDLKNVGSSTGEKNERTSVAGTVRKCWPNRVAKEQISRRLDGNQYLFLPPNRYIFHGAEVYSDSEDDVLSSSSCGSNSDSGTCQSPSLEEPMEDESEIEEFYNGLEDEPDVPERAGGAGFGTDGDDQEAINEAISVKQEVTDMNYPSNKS
UniProt Q92993: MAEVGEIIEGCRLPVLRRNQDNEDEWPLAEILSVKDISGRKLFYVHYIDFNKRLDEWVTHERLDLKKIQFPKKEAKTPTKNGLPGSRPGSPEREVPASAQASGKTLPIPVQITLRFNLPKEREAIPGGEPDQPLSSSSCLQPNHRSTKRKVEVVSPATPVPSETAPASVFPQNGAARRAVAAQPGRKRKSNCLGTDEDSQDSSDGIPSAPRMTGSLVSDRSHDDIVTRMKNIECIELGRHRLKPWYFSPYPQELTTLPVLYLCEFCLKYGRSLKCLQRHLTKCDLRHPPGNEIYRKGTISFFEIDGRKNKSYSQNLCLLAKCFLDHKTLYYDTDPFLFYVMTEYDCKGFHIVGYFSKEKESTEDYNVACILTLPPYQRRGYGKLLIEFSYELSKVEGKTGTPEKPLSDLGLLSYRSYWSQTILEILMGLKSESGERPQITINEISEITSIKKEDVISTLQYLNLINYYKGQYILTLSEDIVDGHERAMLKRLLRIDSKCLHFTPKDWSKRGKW

Legend:
[1] = target: T1, SFB-tagged XPF K911R (UniProt Q92889); assay: co-IP; lysates of cells expressing SFB- and/or myc-tagged proteins, S-protein beads 3 h at 4 °C, NETN buffer, western blot; cells untreated or treated with UV (40 J m^-2) or MMC
T1 sequence: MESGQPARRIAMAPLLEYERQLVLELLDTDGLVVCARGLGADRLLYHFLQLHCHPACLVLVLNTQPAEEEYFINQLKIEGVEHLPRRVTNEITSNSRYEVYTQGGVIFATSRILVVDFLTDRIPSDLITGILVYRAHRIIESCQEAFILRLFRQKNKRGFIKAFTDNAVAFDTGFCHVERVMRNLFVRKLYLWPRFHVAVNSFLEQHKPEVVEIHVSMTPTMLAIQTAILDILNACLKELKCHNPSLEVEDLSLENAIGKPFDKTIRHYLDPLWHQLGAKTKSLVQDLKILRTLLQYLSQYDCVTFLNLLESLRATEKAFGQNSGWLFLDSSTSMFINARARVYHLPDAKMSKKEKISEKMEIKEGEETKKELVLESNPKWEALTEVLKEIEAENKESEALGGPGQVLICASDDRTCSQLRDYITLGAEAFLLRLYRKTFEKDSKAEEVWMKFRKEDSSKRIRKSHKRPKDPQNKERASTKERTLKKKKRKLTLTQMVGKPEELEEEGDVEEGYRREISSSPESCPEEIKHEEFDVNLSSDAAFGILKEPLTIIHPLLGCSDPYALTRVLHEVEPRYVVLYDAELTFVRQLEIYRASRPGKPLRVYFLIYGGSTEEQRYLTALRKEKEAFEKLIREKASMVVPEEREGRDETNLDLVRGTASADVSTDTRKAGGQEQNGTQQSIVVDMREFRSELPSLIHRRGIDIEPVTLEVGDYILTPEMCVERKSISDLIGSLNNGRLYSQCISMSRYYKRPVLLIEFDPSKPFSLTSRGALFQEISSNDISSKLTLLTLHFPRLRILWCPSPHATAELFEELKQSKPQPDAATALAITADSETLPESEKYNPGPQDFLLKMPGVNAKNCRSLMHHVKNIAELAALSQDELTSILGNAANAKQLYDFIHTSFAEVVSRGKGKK

[2] = target: T2, SFB-tagged XPF (wild type) (UniProt Q92889); assay: as above
T2 sequence: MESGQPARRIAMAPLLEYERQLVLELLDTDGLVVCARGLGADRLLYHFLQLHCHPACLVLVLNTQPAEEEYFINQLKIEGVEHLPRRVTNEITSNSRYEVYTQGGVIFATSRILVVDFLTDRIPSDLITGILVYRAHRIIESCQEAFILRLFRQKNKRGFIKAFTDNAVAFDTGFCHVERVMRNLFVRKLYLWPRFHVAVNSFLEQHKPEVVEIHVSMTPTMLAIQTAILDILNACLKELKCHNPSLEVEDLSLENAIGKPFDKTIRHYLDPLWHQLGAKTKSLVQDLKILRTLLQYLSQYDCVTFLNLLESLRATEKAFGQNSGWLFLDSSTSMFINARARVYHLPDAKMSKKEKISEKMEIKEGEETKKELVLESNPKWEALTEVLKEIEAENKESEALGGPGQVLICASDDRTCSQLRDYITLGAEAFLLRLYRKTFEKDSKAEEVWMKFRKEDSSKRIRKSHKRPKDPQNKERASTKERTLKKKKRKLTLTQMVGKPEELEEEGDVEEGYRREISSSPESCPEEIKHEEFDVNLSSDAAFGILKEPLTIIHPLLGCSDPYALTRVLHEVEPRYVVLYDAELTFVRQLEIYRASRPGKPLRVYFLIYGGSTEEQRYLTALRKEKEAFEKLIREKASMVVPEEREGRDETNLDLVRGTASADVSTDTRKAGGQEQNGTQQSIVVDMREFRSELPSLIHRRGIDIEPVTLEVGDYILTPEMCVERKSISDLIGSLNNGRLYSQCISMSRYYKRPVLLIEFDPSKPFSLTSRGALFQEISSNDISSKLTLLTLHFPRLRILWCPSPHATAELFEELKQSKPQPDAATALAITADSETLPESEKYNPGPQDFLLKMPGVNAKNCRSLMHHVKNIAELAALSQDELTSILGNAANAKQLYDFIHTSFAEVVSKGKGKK

[3] = target: T3, SFB-tagged XPF K871R (UniProt Q92889); assay: as above
T3 sequence: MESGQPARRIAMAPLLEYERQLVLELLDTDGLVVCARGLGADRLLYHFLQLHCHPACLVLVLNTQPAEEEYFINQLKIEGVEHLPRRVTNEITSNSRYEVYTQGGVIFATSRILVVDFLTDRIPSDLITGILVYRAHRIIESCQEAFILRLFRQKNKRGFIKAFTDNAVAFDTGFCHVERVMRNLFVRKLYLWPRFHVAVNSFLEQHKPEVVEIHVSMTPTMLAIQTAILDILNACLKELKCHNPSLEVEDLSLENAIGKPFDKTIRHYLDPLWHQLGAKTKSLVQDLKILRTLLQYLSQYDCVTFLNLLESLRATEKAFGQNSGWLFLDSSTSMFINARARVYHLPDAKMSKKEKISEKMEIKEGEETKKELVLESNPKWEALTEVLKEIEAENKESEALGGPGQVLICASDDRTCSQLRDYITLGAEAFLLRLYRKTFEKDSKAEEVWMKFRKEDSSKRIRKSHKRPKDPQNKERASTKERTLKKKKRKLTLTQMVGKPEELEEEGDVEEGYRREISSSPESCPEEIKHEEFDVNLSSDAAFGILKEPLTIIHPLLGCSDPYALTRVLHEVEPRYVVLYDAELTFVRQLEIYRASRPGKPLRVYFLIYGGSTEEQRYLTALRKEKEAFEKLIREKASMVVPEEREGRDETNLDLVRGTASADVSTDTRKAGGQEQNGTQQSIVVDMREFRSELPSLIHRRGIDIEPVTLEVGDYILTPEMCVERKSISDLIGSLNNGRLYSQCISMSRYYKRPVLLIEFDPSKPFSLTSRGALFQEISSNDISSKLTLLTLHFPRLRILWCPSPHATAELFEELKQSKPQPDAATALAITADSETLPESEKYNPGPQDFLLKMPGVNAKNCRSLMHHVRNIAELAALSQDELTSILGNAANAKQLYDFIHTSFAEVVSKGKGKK

[4] = target: GST-tagged SIRT1 (UniProt Q96EB6); assay: pull-down; GST pull-down: GST-tagged protein bound to glutathione-Sepharose, MBP-tagged protein purified from E. coli; XPF detected by immunoblotting; both purified
[5] = target: GST-tagged TIP60 (UniProt Q92993); assay: as above
[6] = target: SFB-tagged TIP60 (UniProt Q92993); assay: co-IP; lysates of cells expressing SFB- and/or myc-tagged proteins, S-protein beads 3 h at 4 °C, NETN buffer, western blot; cells untreated or treated with UV (40 J m^-2) or MMC
[7] = target: GST-tagged TIP60 (UniProt Q92993); assay: pull-down; GST pull-down with GST-TIP60 (GST as control) and MBP-ERCC1, proteins purified from E. coli; ERCC1 detected by immunoblotting with anti-ERCC1; both purified

binding [1]: binds | binding [2]: binds | binding [3]: binds
Molecule: Myc-tagged TIP60 (from UniProt Q92993 1-513) (enzyme)

binding [4]: binds | binding [5]: binds
B1: MBP-tagged XPF (protein, UniProt Q92889 1-916)
chain: MESGQPARRIAMAPLLEYERQLVLELLDTDGLVVCARGLGADRLLYHFLQLHCHPACLVLVLNTQPAEEEYFINQLKIEGVEHLPRRVTNEITSNSRYEVYTQGGVIFATSRILVVDFLTDRIPSDLITGILVYRAHRIIESCQEAFILRLFRQKNKRGFIKAFTDNAVAFDTGFCHVERVMRNLFVRKLYLWPRFHVAVNSFLEQHKPEVVEIHVSMTPTMLAIQTAILDILNACLKELKCHNPSLEVEDLSLENAIGKPFDKTIRHYLDPLWHQLGAKTKSLVQDLKILRTLLQYLSQYDCVTFLNLLESLRATEKAFGQNSGWLFLDSSTSMFINARARVYHLPDAKMSKKEKISEKMEIKEGEETKKELVLESNPKWEALTEVLKEIEAENKESEALGGPGQVLICASDDRTCSQLRDYITLGAEAFLLRLYRKTFEKDSKAEEVWMKFRKEDSSKRIRKSHKRPKDPQNKERASTKERTLKKKKRKLTLTQMVGKPEELEEEGDVEEGYRREISSSPESCPEEIKHEEFDVNLSSDAAFGILKEPLTIIHPLLGCSDPYALTRVLHEVEPRYVVLYDAELTFVRQLEIYRASRPGKPLRVYFLIYGGSTEEQRYLTALRKEKEAFEKLIREKASMVVPEEREGRDETNLDLVRGTASADVSTDTRKAGGQEQNGTQQSIVVDMREFRSELPSLIHRRGIDIEPVTLEVGDYILTPEMCVERKSISDLIGSLNNGRLYSQCISMSRYYKRPVLLIEFDPSKPFSLTSRGALFQEISSNDISSKLTLLTLHFPRLRILWCPSPHATAELFEELKQSKPQPDAATALAITADSETLPESEKYNPGPQDFLLKMPGVNAKNCRSLMHHVKNIAELAALSQDELTSILGNAANAKQLYDFIHTSFAEVVSKGKGKK

binding [6]: binds
B2: XPF, endogenous in HEK293T (protein, UniProt Q92889 1-916)
chain: MESGQPARRIAMAPLLEYERQLVLELLDTDGLVVCARGLGADRLLYHFLQLHCHPACLVLVLNTQPAEEEYFINQLKIEGVEHLPRRVTNEITSNSRYEVYTQGGVIFATSRILVVDFLTDRIPSDLITGILVYRAHRIIESCQEAFILRLFRQKNKRGFIKAFTDNAVAFDTGFCHVERVMRNLFVRKLYLWPRFHVAVNSFLEQHKPEVVEIHVSMTPTMLAIQTAILDILNACLKELKCHNPSLEVEDLSLENAIGKPFDKTIRHYLDPLWHQLGAKTKSLVQDLKILRTLLQYLSQYDCVTFLNLLESLRATEKAFGQNSGWLFLDSSTSMFINARARVYHLPDAKMSKKEKISEKMEIKEGEETKKELVLESNPKWEALTEVLKEIEAENKESEALGGPGQVLICASDDRTCSQLRDYITLGAEAFLLRLYRKTFEKDSKAEEVWMKFRKEDSSKRIRKSHKRPKDPQNKERASTKERTLKKKKRKLTLTQMVGKPEELEEEGDVEEGYRREISSSPESCPEEIKHEEFDVNLSSDAAFGILKEPLTIIHPLLGCSDPYALTRVLHEVEPRYVVLYDAELTFVRQLEIYRASRPGKPLRVYFLIYGGSTEEQRYLTALRKEKEAFEKLIREKASMVVPEEREGRDETNLDLVRGTASADVSTDTRKAGGQEQNGTQQSIVVDMREFRSELPSLIHRRGIDIEPVTLEVGDYILTPEMCVERKSISDLIGSLNNGRLYSQCISMSRYYKRPVLLIEFDPSKPFSLTSRGALFQEISSNDISSKLTLLTLHFPRLRILWCPSPHATAELFEELKQSKPQPDAATALAITADSETLPESEKYNPGPQDFLLKMPGVNAKNCRSLMHHVKNIAELAALSQDELTSILGNAANAKQLYDFIHTSFAEVVSKGKGKK

binding [5]: no binding | binding [7]: no binding
B3: MBP-tagged ERCC1 (protein, UniProt P07992 1-297)
chain: MDPGKDKEGVPQPSGPPARKKFVIPLDEDEVPPGVAKPLFRSTQSLPTVDTSAQAAPQTYAEYAISQPLEGAGATCPTGSEPLAGETPNQALKPGAKSNSIIVSPRQRGNPVLKFVRNVPWEFGDVIPDYVLGQSTCALFLSLRYHNLHPDYIHGRLQSLGKNFALRVLLVQVDVKDPQQALKELAKMCILADCTLILAWSPEEAGRYLETYKAYEQKPADLLMEKLEQDFVSRVTECLTTVKSVNKTDSQTLLTTFGSLEQLIAASREDLALCPGLGPQKARRLFDVLHEPFLKVP
